Experimental data published in the antibiotic and cytotoxicity screens of Wong et al. (2023).
Some of the results follow.

Key:
HSkMC = human skeletal muscle cells; assay: cytotoxicity call (relative viability < 0.9); details: 10 µM
HepG2 = assay: cytotoxicity call (relative viability < 0.9); details: 10 µM
S. aureus RN4220 = assay: growth inhibition call (relative growth <= 0.2); details: 50 µM

Question: `C[C@@H]1CN([C@H](C)CO)S(=O)(=O)c2ccc(C#Cc3cccnc3)cc2O[C@H]1CN(C)C(=O)Nc1ccc2c(c1)OCO2` was tested. Which cytotoxicity call (HSkMC) did it give?
Answer: The cytotoxicity call was “inactive”.

Question: What about the cytotoxicity call (HepG2) of the same compound?
Answer: Its cytotoxicity call is “inactive”.

Question: What about the growth inhibition call (S. aureus RN4220) of the same compound?
Answer: Its growth inhibition call is “inactive”.

Question: Which results are given for `C[C@@H]1CN([C@H](C)CO)C(=O)Cc2cc(NC(=O)Nc3cccc4ccccc34)ccc2O[C@@H]1CN(C)Cc1ccc(C(F)(F)F)cc1`?
Answer: cytotoxicity call (HSkMC): inactive; cytotoxicity call (HepG2): active; growth inhibition call (S. aureus RN4220): inactive

Question: `CC(C)c1cc(=O)nc[nH]1` was tested. Which cytotoxicity call (HSkMC) did it give?
Answer: Its cytotoxicity call is “inactive”.

Question: What about the cytotoxicity call (HepG2) of the same compound?
Answer: The cytotoxicity call was “inactive”.

Question: What about the growth inhibition call (S. aureus RN4220) of the same compound?
Answer: The growth inhibition call was “inactive”.

Question: How did the cytotoxicity call (HSkMC) turn out when `O=C1O[C@@H](c2ccccc2)[C@@H](c2ccccc2)N2[C@@H](c3ccc(OCCO)cc3)[C@]3(C(=O)Nc4ccc(C#CCCO)cc43)[C@@H](C(=O)N3CCCCCCC3)[C@H]12` was run?
Answer: Its cytotoxicity call is “inactive”.

Question: What about the cytotoxicity call (HepG2) of the same compound?
Answer: The cytotoxicity call was “inactive”.

Question: And the growth inhibition call (S. aureus RN4220)?
Answer: The growth inhibition call was “inactive”.

Question: How did the cytotoxicity call (HSkMC) turn out when `C[C@H]1CN([C@@H](C)CO)C(=O)c2cccc(NS(=O)(=O)c3cn(C)cn3)c2O[C@@H]1CN(C)CC1CCCCC1` was run?
Answer: The cytotoxicity call was “inactive”.

Question: What about the cytotoxicity call (HepG2) of the same compound?
Answer: The cytotoxicity call was “inactive”.

Question: And the growth inhibition call (S. aureus RN4220)?
Answer: The growth inhibition call was “inactive”.

Question: How did the cytotoxicity call (HSkMC) turn out when `C[C@@H]1CN([C@@H](C)CO)C(=O)Cc2cc(NC(=O)CCCN(C)C)ccc2O[C@H]1CN(C)Cc1ccncc1` was run?
Answer: The cytotoxicity call was “inactive”.

Question: What about the cytotoxicity call (HepG2) of the same compound?
Answer: Its cytotoxicity call is “inactive”.

Question: What about the growth inhibition call (S. aureus RN4220) of the same compound?
Answer: The growth inhibition call was “inactive”.

Question: With `C[C@H](CO)N1C[C@H](C)[C@H](CN(C)S(=O)(=O)c2cn(C)cn2)Oc2ccc(NC(=O)c3ccncc3)cc2C1=O` as the compound, how does the cytotoxicity call (HSkMC) read?
Answer: Its cytotoxicity call is “inactive”.

Question: And the cytotoxicity call (HepG2)?
Answer: Its cytotoxicity call is “inactive”.

Question: What about the growth inhibition call (S. aureus RN4220) of the same compound?
Answer: Its growth inhibition call is “inactive”.

Question: With `C[C@@H]1CCCCO[C@H](CN(C)C(=O)Nc2cccc3ccccc23)[C@H](C)CN([C@@H](C)CO)C(=O)c2cc(NC(=O)CCC(F)(F)F)ccc2O1` as the compound, how does the cytotoxicity call (HSkMC) read?
Answer: The cytotoxicity call was “inactive”.

Question: What about the cytotoxicity call (HepG2) of the same compound?
Answer: Its cytotoxicity call is “inactive”.

Question: What about the growth inhibition call (S. aureus RN4220) of the same compound?
Answer: Its growth inhibition call is “inactive”.

Question: For `C[C@@H]1CN([C@H](C)CO)C(=O)Cc2cc(NS(=O)(=O)c3ccccc3)ccc2O[C@@H]1CN(C)Cc1ccc(Cl)c(Cl)c1`, which cytotoxicity call (HSkMC) is on record?
Answer: The cytotoxicity call was “active”.

Question: And the cytotoxicity call (HepG2)?
Answer: The cytotoxicity call was “active”.

Question: What about the growth inhibition call (S. aureus RN4220) of the same compound?
Answer: The growth inhibition call was “inactive”.

Question: How did the cytotoxicity call (HSkMC) turn out when `CO[C@H]1CN(C)C(=O)c2cc(NC(=O)CC(F)(F)F)ccc2OC[C@H](C)N(S(=O)(=O)c2cn(C)cn2)C[C@@H]1C` was run?
Answer: Its cytotoxicity call is “inactive”.

Question: What about the cytotoxicity call (HepG2) of the same compound?
Answer: Its cytotoxicity call is “inactive”.

Question: What about the growth inhibition call (S. aureus RN4220) of the same compound?
Answer: Its growth inhibition call is “inactive”.

Question: With `CN1CCOC(c2ccccc2)c2ccccc2C1` (stereo not given) as the compound, how does the cytotoxicity call (HSkMC) read?
Answer: The cytotoxicity call was “inactive”.

Question: What about the cytotoxicity call (HepG2) of the same compound?
Answer: The cytotoxicity call was “inactive”.

Question: And the growth inhibition call (S. aureus RN4220)?
Answer: The growth inhibition call was “inactive”.

Question: For `C[C@@H]1CN([C@@H](C)CO)C(=O)c2cc(NC(=O)NC3CCCCC3)ccc2O[C@@H](C)CCCCO[C@@H]1CN(C)C(=O)Nc1ccc2c(c1)OCO2`, which cytotoxicity call (HSkMC) is on record?
Answer: Its cytotoxicity call is “inactive”.

Question: And the cytotoxicity call (HepG2)?
Answer: Its cytotoxicity call is “inactive”.

Question: And the growth inhibition call (S. aureus RN4220)?
Answer: The growth inhibition call was “inactive”.

Question: What does the source list for `C[C@@H]1CCCCO[C@H](CN(C)S(=O)(=O)c2ccc(Cl)cc2)[C@@H](C)CN([C@H](C)CO)C(=O)c2cc(NC(=O)NC3CCCCC3)ccc2O1`?
Answer: cytotoxicity call (HSkMC): inactive; cytotoxicity call (HepG2): inactive; growth inhibition call (S. aureus RN4220): inactive

Question: How did the cytotoxicity call (HSkMC) turn out when `C[C@@H]1CCCCO[C@H](CN(C)C(=O)Nc2ccc3c(c2)OCO3)[C@@H](C)CN([C@@H](C)CO)C(=O)c2cc(NS(=O)(=O)c3cccs3)ccc2O1` was run?
Answer: The cytotoxicity call was “inactive”.

Question: What about the cytotoxicity call (HepG2) of the same compound?
Answer: Its cytotoxicity call is “inactive”.

Question: And the growth inhibition call (S. aureus RN4220)?
Answer: Its growth inhibition call is “inactive”.

Question: For `Cn1c(=O)c2c(ncn2C[C@@H](O)COc2ccccc2)n(C)c1=O`, which cytotoxicity call (HSkMC) is on record?
Answer: Its cytotoxicity call is “inactive”.

Question: And the cytotoxicity call (HepG2)?
Answer: Its cytotoxicity call is “inactive”.

Question: What about the growth inhibition call (S. aureus RN4220) of the same compound?
Answer: The growth inhibition call was “inactive”.

Question: For `C[C@H](CO)N1C[C@H](C)[C@H](CN(C)C(=O)C2CCOCC2)Oc2ncc(C#Cc3ccccc3F)cc2C1=O`, which cytotoxicity call (HSkMC) is on record?
Answer: The cytotoxicity call was “inactive”.

Question: What about the cytotoxicity call (HepG2) of the same compound?
Answer: Its cytotoxicity call is “inactive”.

Question: And the growth inhibition call (S. aureus RN4220)?
Answer: The growth inhibition call was “inactive”.

Question: Which results are given for `O=C(NCc1ccc(F)cc1)[C@@H]1[C@@H](CO)[C@@H]2Cn3c(cccc3=O)[C@H]1N2C(=O)c1cnccn1`?
Answer: cytotoxicity call (HSkMC): inactive; cytotoxicity call (HepG2): inactive; growth inhibition call (S. aureus RN4220): inactive

Question: Which cytotoxicity call (HSkMC) does the source give for `C[C@H](CO)N1C[C@H](C)[C@@H](CN(C)C(=O)c2cccnc2)Oc2cc(-c3cccc(C#N)c3)ccc2S1(=O)=O` here?
Answer: Its cytotoxicity call is “inactive”.

Question: What about the cytotoxicity call (HepG2) of the same compound?
Answer: The cytotoxicity call was “inactive”.

Question: What about the growth inhibition call (S. aureus RN4220) of the same compound?
Answer: The growth inhibition call was “inactive”.

Question: Which cytotoxicity call (HSkMC) does the source give for `C[C@@H]1CN([C@H](C)CO)C(=O)c2cc(NS(=O)(=O)c3cccs3)ccc2O[C@@H]1CN(C)S(C)(=O)=O` here?
Answer: The cytotoxicity call was “inactive”.

Question: And the cytotoxicity call (HepG2)?
Answer: The cytotoxicity call was “inactive”.

Question: What about the growth inhibition call (S. aureus RN4220) of the same compound?
Answer: The growth inhibition call was “inactive”.

Question: Which results are given for `O=C(NCc1nc2ccccc2[nH]1)C1=C[C@@H](c2csc3ccccc23)C[C@@H](OCc2ccc(CO)cc2)O1`?
Answer: cytotoxicity call (HSkMC): inactive; cytotoxicity call (HepG2): inactive; growth inhibition call (S. aureus RN4220): inactive

Question: For `C[C@@H]1CN([C@@H](C)CO)C(=O)c2cccc(NS(=O)(=O)c3cccs3)c2O[C@H]1CN(C)Cc1ccc(Oc2ccccc2)cc1`, which cytotoxicity call (HSkMC) is on record?
Answer: Its cytotoxicity call is “inactive”.

Question: And the cytotoxicity call (HepG2)?
Answer: The cytotoxicity call was “inactive”.

Question: And the growth inhibition call (S. aureus RN4220)?
Answer: The growth inhibition call was “inactive”.

Question: With `CCCCCCC#C[Si](O[C@H](c1ccccc1)c1cn(Cc2cccc(Cl)c2)nn1)(C(C)C)C(C)C` as the compound, how does the cytotoxicity call (HSkMC) read?
Answer: The cytotoxicity call was “inactive”.

Question: What about the cytotoxicity call (HepG2) of the same compound?
Answer: Its cytotoxicity call is “inactive”.

Question: And the growth inhibition call (S. aureus RN4220)?
Answer: The growth inhibition call was “inactive”.

Question: With `C[C@@H]1CCCCO[C@H](CN(C)Cc2ccc(C(F)(F)F)cc2)[C@H](C)CN([C@H](C)CO)C(=O)c2cc(NC(=O)Nc3ccc(F)cc3)ccc2O1` as the compound, how does the cytotoxicity call (HSkMC) read?
Answer: Its cytotoxicity call is “inactive”.

Question: What about the cytotoxicity call (HepG2) of the same compound?
Answer: Its cytotoxicity call is “active”.

Question: What about the growth inhibition call (S. aureus RN4220) of the same compound?
Answer: The growth inhibition call was “inactive”.

Question: With `Cc1c(N(C)CS(=O)(=O)[O-])c(=O)n(-c2ccccc2)n1C.[Na+]` as the compound, how does the cytotoxicity call (HSkMC) read?
Answer: The cytotoxicity call was “inactive”.

Question: What about the cytotoxicity call (HepG2) of the same compound?
Answer: The cytotoxicity call was “inactive”.

Question: And the growth inhibition call (S. aureus RN4220)?
Answer: The growth inhibition call was “inactive”.

Question: `C[C@H]1CN([C@@H](C)CO)C(=O)c2cccc(NS(C)(=O)=O)c2O[C@H]1CN(C)S(=O)(=O)c1ccccc1` was tested. Which cytotoxicity call (HSkMC) did it give?
Answer: The cytotoxicity call was “inactive”.

Question: And the cytotoxicity call (HepG2)?
Answer: Its cytotoxicity call is “inactive”.

Question: And the growth inhibition call (S. aureus RN4220)?
Answer: Its growth inhibition call is “inactive”.
